Measurements as given in the supplement of paper PMC10126150.
Values marked as one replicate rest on one cluster of the flow cell; about a third of the high ones do not repeat.

Test system: ATP
Assay: switch fluorescence ratio, 500 uM ATP over buffer (Cy3 cluster intensity, sum of 5 cycles each) (fold (ratio)); higher = stronger signal-on switching upon ATP binding; sequences stand for … in TCGTCGGCAGCGTCAGATGTGTATAAGAGACAGTTTTTTTTTTTTTTTTTTTTTTTTT…TC
Conditions: aptamer strand: ATP DNA aptamer (quencher-CACCTGGGGGAGTATTGCGGAGGAAGG + anchor), 100 nM annealed; ATP concentration: 500 uM; one replicate
Procedure, shortened: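 Between each of five buffer/ATP cycles, the flow-cell was stripped with NaOH and re-annealed. Each cycle imaged Cy3-labelled switching-strand clusters, annealed to 100 nM quencher-labelled ATP aptamer on a modified Illumina MiSeq flow-cell, first in selection buffer and then after 15 min with 500 uM ATP at 22 °C. The fluorescence ratio is summed target-cycle over summed buffer-cycle Cy3 intensity per cluster, averaged per switch-domain sequence, with clusters outside 100-1000 RFU excluded.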
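Note: ATP exposure 15 min at 22 °C before imaging.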

Question: Which switch fluorescence ratio does the source give for CTGAAGTCCC here?
Answer: 1.03

Question: Which switch fluorescence ratio does the source give for TCAGACCCCT here?
Answer: 1.03

Question: With ATAACAGCTA as the sequence, how does the switch fluorescence ratio read?
Answer: 0.987

Question: How did the switch fluorescence ratio turn out when GACGTCTCAA was run?
Answer: 0.949

Question: With GGGTGGGTAA as the sequence, how does the switch fluorescence ratio read?
Answer: 1

Question: Which switch fluorescence ratio does the source give for TAAACACTCA here?
Answer: 1.05

Question: For ATATCTTAG, which switch fluorescence ratio is on record?
Answer: 1.04

Question: With TCCGCCTGCA as the sequence, how does the switch fluorescence ratio read?
Answer: 4.37

Question: With GAAAATTTCC as the sequence, how does the switch fluorescence ratio read?
Answer: 1.16

Question: ACGAAGCCCA was tested. Which switch fluorescence ratio did it give?
Answer: 1.35

Question: For TCCGTGAG, which switch fluorescence ratio is on record?
Answer: 2.69

Question: TGTATCCCAA was tested. Which switch fluorescence ratio did it give?
Answer: 1.13

Question: Which switch fluorescence ratio does the source give for CAGTTTAAAT here?
Answer: 0.964

Question: AAAAAGAATA was tested. Which switch fluorescence ratio did it give?
Answer: 0.953

Question: AGTGCATAAT was tested. Which switch fluorescence ratio did it give?
Answer: 0.958

Question: Which switch fluorescence ratio does the source give for AGCGTCTTC here?
Answer: 0.984

Question: For TTGGACCGGG, which switch fluorescence ratio is on record?
Answer: 0.982

Question: Which switch fluorescence ratio does the source give for GAGTATAGCA here?
Answer: 1.04

Question: Which switch fluorescence ratio does the source give for AATGTCCAAG here?
Answer: 0.989

Question: With GCTTGCCAGT as the sequence, how does the switch fluorescence ratio read?
Answer: 1.02

Question: Which switch fluorescence ratio does the source give for AAATAGAAAC here?
Answer: 0.938

Question: Which switch fluorescence ratio does the source give for CGTGTCCGCG here?
Answer: 0.997

Question: AGTAGGCGTT was tested. Which switch fluorescence ratio did it give?
Answer: 1.02

Question: How did the switch fluorescence ratio turn out when GGCTACAAAA was run?
Answer: 0.952

Question: For AGCTGCCTTA, which switch fluorescence ratio is on record?
Answer: 1

Question: With ACGGAATCTT as the sequence, how does the switch fluorescence ratio read?
Answer: 1.08

Question: With GACACGGAGA as the sequence, how does the switch fluorescence ratio read?
Answer: 1.02

Question: How did the switch fluorescence ratio turn out when TTGGTGGTAA was run?
Answer: 0.983

Question: Which switch fluorescence ratio does the source give for AGGGGGAAAG here?
Answer: 0.986

Question: AAGGTGGAGG was tested. Which switch fluorescence ratio did it give?
Answer: 0.991

Question: With GTCTTGACGT as the sequence, how does the switch fluorescence ratio read?
Answer: 0.979

Question: AGAGGCGCCA was tested. Which switch fluorescence ratio did it give?
Answer: 1.03

Question: CGGGTGCAGA was tested. Which switch fluorescence ratio did it give?
Answer: 1.03

Question: GAAGAGTAAG was tested. Which switch fluorescence ratio did it give?
Answer: 0.996

Question: Which switch fluorescence ratio does the source give for TATCAAGGG here?
Answer: 0.986

Question: Which switch fluorescence ratio does the source give for AATCTTTCCG here?
Answer: 1.02

Question: TCAAGATAGT was tested. Which switch fluorescence ratio did it give?
Answer: 1.01

Question: For ATGGTGTAA, which switch fluorescence ratio is on record?
Answer: 1.02

Question: Which switch fluorescence ratio does the source give for GGATTGCTGT here?
Answer: 1.01

Question: With CTCGTTGACC as the sequence, how does the switch fluorescence ratio read?
Answer: 1.02

Question: How did the switch fluorescence ratio turn out when TCTAATGCGG was run?
Answer: 0.988

Question: Which switch fluorescence ratio does the source give for TAATGCCCGG here?
Answer: 1.03

Question: For TCACTACCCC, which switch fluorescence ratio is on record?
Answer: 1.07

Question: Which switch fluorescence ratio does the source give for AACATCTTTC here?
Answer: 0.987

Question: For TGGGGGAC, which switch fluorescence ratio is on record?
Answer: 0.967

Question: Which switch fluorescence ratio does the source give for ATTAACTTGG here?
Answer: 1

Question: CTAATCCGAG was tested. Which switch fluorescence ratio did it give?
Answer: 1.07

Question: For ATATAGGTAC, which switch fluorescence ratio is on record?
Answer: 1.05

Question: GCGACAGGCC was tested. Which switch fluorescence ratio did it give?
Answer: 1.03

Question: With TATTTTGCAA as the sequence, how does the switch fluorescence ratio read?
Answer: 1.09

Question: How did the switch fluorescence ratio turn out when AACCAGTCGG was run?
Answer: 0.982

Question: AGTTGGCTGT was tested. Which switch fluorescence ratio did it give?
Answer: 0.958

Question: How did the switch fluorescence ratio turn out when CTGACGCCTG was run?
Answer: 1.15

Question: ACACACGGCT was tested. Which switch fluorescence ratio did it give?
Answer: 1.21

Question: Which switch fluorescence ratio does the source give for GTTGTAAGAC here?
Answer: 0.954

Question: How did the switch fluorescence ratio turn out when GGGGCACTC was run?
Answer: 1.04

Question: For CGTGCCAACT, which switch fluorescence ratio is on record?
Answer: 1.01

Question: With ATAGGCCACG as the sequence, how does the switch fluorescence ratio read?
Answer: 1.02

Question: How did the switch fluorescence ratio turn out when TGTAATTTAG was run?
Answer: 1.01

Question: For CGCACATCTT, which switch fluorescence ratio is on record?
Answer: 1.37

Question: With GATCCTCGT as the sequence, how does the switch fluorescence ratio read?
Answer: 0.96

Question: With TCCGGGTGGC as the sequence, how does the switch fluorescence ratio read?
Answer: 1.4

Question: For GGGGTGGAAC, which switch fluorescence ratio is on record?
Answer: 1.07

Question: With AAGCTCCATC as the sequence, how does the switch fluorescence ratio read?
Answer: 1.03

Question: Which switch fluorescence ratio does the source give for CACAGCTCCT here?
Answer: 0.973

Question: CACATTTGTA was tested. Which switch fluorescence ratio did it give?
Answer: 0.956

Question: How did the switch fluorescence ratio turn out when GCTTATATAA was run?
Answer: 0.994

Question: How did the switch fluorescence ratio turn out when ACCGAGTCTG was run?
Answer: 1.35

Question: AAATGCGGGC was tested. Which switch fluorescence ratio did it give?
Answer: 1.09

Question: Which switch fluorescence ratio does the source give for TCGGGGCTTG here?
Answer: 1

Question: How did the switch fluorescence ratio turn out when ACATGTCTTA was run?
Answer: 1.02

Question: For AGCAGTTGC, which switch fluorescence ratio is on record?
Answer: 1.02

Question: For TTACAGGTTA, which switch fluorescence ratio is on record?
Answer: 0.977

Question: Which switch fluorescence ratio does the source give for TAAAGCCGCC here?
Answer: 1.16

Question: With CGTGGGGACA as the sequence, how does the switch fluorescence ratio read?
Answer: 1.02

Question: How did the switch fluorescence ratio turn out when ACTGGAGTA was run?
Answer: 1.02

Question: For CGGCTCCCCA, which switch fluorescence ratio is on record?
Answer: 1.44

Question: Which switch fluorescence ratio does the source give for TGTCAGGGAG here?
Answer: 0.956

Question: How did the switch fluorescence ratio turn out when AATCCGCTCG was run?
Answer: 1.11

Question: With TTTACATAA as the sequence, how does the switch fluorescence ratio read?
Answer: 1.04

Question: For TGGAGCACTA, which switch fluorescence ratio is on record?
Answer: 1.61

Question: CTGCTAAATT was tested. Which switch fluorescence ratio did it give?
Answer: 1.04

Question: Which switch fluorescence ratio does the source give for TATCTCGGCT here?
Answer: 1

Question: GTGAGTCATG was tested. Which switch fluorescence ratio did it give?
Answer: 1.03

Question: Which switch fluorescence ratio does the source give for CTCGATGGA here?
Answer: 0.95
